Laboratory results from the supplement of paper PMC11876631.
± gives the standard deviation of the averaged measurements. Laboratory Escherichia coli strains with one amino-acid change in an essential protein, pooled on minimal glucose agar with carbenicillin or gentamicin at twice the control MIC (plus kanamycin and chloramphenicol for the plasmids), 48 h. Fold change of barcode share against drug-free plates; higher = less susceptible. Active = above 20 in both replicates (the paper's putatively resistant). '<' = one read or none on drug, '>' = one read or none on a drug-free plate. Shares are relative, so most strains fall below 1 when a few take over. Listed are strains with at least 15 reads on both drug-free plates, and hits; most hits rest on fewer reference reads. Replicate rank correlation about 0.5. Edits are read from barcodes.

Target: Escherichia coli (laboratory strain)
Test: barcode share on antibiotic plates over drug-free plates; higher = less susceptible
Experimental: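 A pool of E. coli strains, each edited to carry one amino-acid change in an essential protein, was grown for 48 h on minimal glucose agar with or without antibiotic; strain barcodes were sequenced; mean of two replicates.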

[1] = antibiotic: carbenicillin, 2× MIC (3.1 µg/mL)
[2] = antibiotic: gentamicin, 2× MIC (MIC 0.45 µg/mL)

B1: leuA I194A (protein)
chain: MSQQVIIFDTTLRDGEQALQASLSVKEKLQIALALERMGVDVMEVGFPVSSPGDFESVQTIARQVKNSRVCALARCVEKDIDVAAESLKVAEAFRIHTFIATSPMHIATKLRSTLDEVIERAIYMVKRARNYTDDVEFSCEDAGRTPIADLARVVEAAINAGATTINIPDTVGYTMPFEFAGIISGLYERVPNADKAIISVHTHDDLGLAVGNSLAAVHAGARQVEGAMNGIGERAGNCSLEEVIMAIKVRKDILNVHTAINHQEIWRTSQLVSQICNMPIPANKAIVGSGAFAHSSGIHQDGVLKNRENYEIMTPESIGLNQIQLNLTSRSGRAAVKHRMDEMGYKESEYNLDNLYDAFLKLADKKGQVFDYDLEALAFIGKQQEEPEHFRLDYFSVQSGSNDIATAAVKLACGEEVKAEAANGNGPVDAVYQAINRITEYNVELVKYSLTAKGHGKDALGQVDIVANYNGRRFHGVGLATDIVESSAKAMVHVLNNIWRAAEVEKELQRKAQHNENNKETV
With B1 as the protein, how does the “fold change of barcode share” value [1] read?
The value was 0.497 ± 0.11.

What about the “fold change of barcode share” value [2] of the same protein?
Its value is under 0.00331.

B2: leuA I194D (protein)
chain: MSQQVIIFDTTLRDGEQALQASLSVKEKLQIALALERMGVDVMEVGFPVSSPGDFESVQTIARQVKNSRVCALARCVEKDIDVAAESLKVAEAFRIHTFIATSPMHIATKLRSTLDEVIERAIYMVKRARNYTDDVEFSCEDAGRTPIADLARVVEAAINAGATTINIPDTVGYTMPFEFAGIISGLYERVPNDDKAIISVHTHDDLGLAVGNSLAAVHAGARQVEGAMNGIGERAGNCSLEEVIMAIKVRKDILNVHTAINHQEIWRTSQLVSQICNMPIPANKAIVGSGAFAHSSGIHQDGVLKNRENYEIMTPESIGLNQIQLNLTSRSGRAAVKHRMDEMGYKESEYNLDNLYDAFLKLADKKGQVFDYDLEALAFIGKQQEEPEHFRLDYFSVQSGSNDIATAAVKLACGEEVKAEAANGNGPVDAVYQAINRITEYNVELVKYSLTAKGHGKDALGQVDIVANYNGRRFHGVGLATDIVESSAKAMVHVLNNIWRAAEVEKELQRKAQHNENNKETV
How did the “fold change of barcode share” value [1] turn out when B2 was run?
Its value is 0.538 ± 0.059.

What about the “fold change of barcode share” value [2] of the same protein?
Its value is 0.0177 ± 0.017.

B3: leuA I194W (protein)
chain: MSQQVIIFDTTLRDGEQALQASLSVKEKLQIALALERMGVDVMEVGFPVSSPGDFESVQTIARQVKNSRVCALARCVEKDIDVAAESLKVAEAFRIHTFIATSPMHIATKLRSTLDEVIERAIYMVKRARNYTDDVEFSCEDAGRTPIADLARVVEAAINAGATTINIPDTVGYTMPFEFAGIISGLYERVPNWDKAIISVHTHDDLGLAVGNSLAAVHAGARQVEGAMNGIGERAGNCSLEEVIMAIKVRKDILNVHTAINHQEIWRTSQLVSQICNMPIPANKAIVGSGAFAHSSGIHQDGVLKNRENYEIMTPESIGLNQIQLNLTSRSGRAAVKHRMDEMGYKESEYNLDNLYDAFLKLADKKGQVFDYDLEALAFIGKQQEEPEHFRLDYFSVQSGSNDIATAAVKLACGEEVKAEAANGNGPVDAVYQAINRITEYNVELVKYSLTAKGHGKDALGQVDIVANYNGRRFHGVGLATDIVESSAKAMVHVLNNIWRAAEVEKELQRKAQHNENNKETV
B3 was tested. Which “fold change of barcode share” value [1] did it give?
The value was 0.96 ± 0.14.

What about the “fold change of barcode share” value [2] of the same protein?
Its value is 0.00708 ± 0.0046.

B4: leuA I194Q (protein)
chain: MSQQVIIFDTTLRDGEQALQASLSVKEKLQIALALERMGVDVMEVGFPVSSPGDFESVQTIARQVKNSRVCALARCVEKDIDVAAESLKVAEAFRIHTFIATSPMHIATKLRSTLDEVIERAIYMVKRARNYTDDVEFSCEDAGRTPIADLARVVEAAINAGATTINIPDTVGYTMPFEFAGIISGLYERVPNQDKAIISVHTHDDLGLAVGNSLAAVHAGARQVEGAMNGIGERAGNCSLEEVIMAIKVRKDILNVHTAINHQEIWRTSQLVSQICNMPIPANKAIVGSGAFAHSSGIHQDGVLKNRENYEIMTPESIGLNQIQLNLTSRSGRAAVKHRMDEMGYKESEYNLDNLYDAFLKLADKKGQVFDYDLEALAFIGKQQEEPEHFRLDYFSVQSGSNDIATAAVKLACGEEVKAEAANGNGPVDAVYQAINRITEYNVELVKYSLTAKGHGKDALGQVDIVANYNGRRFHGVGLATDIVESSAKAMVHVLNNIWRAAEVEKELQRKAQHNENNKETV
For B4, which “fold change of barcode share” value [1] is on record?
Its value is 0.473 ± 0.039.

And the “fold change of barcode share” value [2]?
Its value is under 0.00349.

B5: kdsB V82A (protein)
chain: MSFVVIIPARYASTRLPGKPLVDINGKPMIVHVLERARESGAERIIVATDHEDVARAVEAAGGEVCMTRADHQSGTERLAEAVEKCAFSDDTVIVNVQGDEPMIPATIIRQVADNLAQRQVGMATLAVPIHNAEEAFNPNAVKVVLDAEGYALYFSRATIPWDRDRFAEGLETVGDNFLRHLGIYGYRAGFIRRYVNWQPSPLEHIEMLEQLRVLWYGEKIHVAVAQEVPGTGVDTPEDLERVRAEMR
With B5 as the protein, how does the “fold change of barcode share” value [1] read?
The value was 0.351 ± 0.056.

What about the “fold change of barcode share” value [2] of the same protein?
Its value is 0.00572 ± 0.005.

B6: kdsB V95A (protein)
chain: MSFVVIIPARYASTRLPGKPLVDINGKPMIVHVLERARESGAERIIVATDHEDVARAVEAAGGEVCMTRADHQSGTERLAEVVEKCAFSDDTVIANVQGDEPMIPATIIRQVADNLAQRQVGMATLAVPIHNAEEAFNPNAVKVVLDAEGYALYFSRATIPWDRDRFAEGLETVGDNFLRHLGIYGYRAGFIRRYVNWQPSPLEHIEMLEQLRVLWYGEKIHVAVAQEVPGTGVDTPEDLERVRAEMR
Which “fold change of barcode share” value [1] does the source give for B6 here?
Its value is 0.704 ± 0.47.

What about the “fold change of barcode share” value [2] of the same protein?
Its value is under 0.0062.

B7: kdsB I30A (protein)
chain: MSFVVIIPARYASTRLPGKPLVDINGKPMAVHVLERARESGAERIIVATDHEDVARAVEAAGGEVCMTRADHQSGTERLAEVVEKCAFSDDTVIVNVQGDEPMIPATIIRQVADNLAQRQVGMATLAVPIHNAEEAFNPNAVKVVLDAEGYALYFSRATIPWDRDRFAEGLETVGDNFLRHLGIYGYRAGFIRRYVNWQPSPLEHIEMLEQLRVLWYGEKIHVAVAQEVPGTGVDTPEDLERVRAEMR
For B7, which “fold change of barcode share” value [1] is on record?
Its value is 0.238 ± 0.1.

What about the “fold change of barcode share” value [2] of the same protein?
The value was under 0.00844.

B8: kdsB V83W (protein)
chain: MSFVVIIPARYASTRLPGKPLVDINGKPMIVHVLERARESGAERIIVATDHEDVARAVEAAGGEVCMTRADHQSGTERLAEVWEKCAFSDDTVIVNVQGDEPMIPATIIRQVADNLAQRQVGMATLAVPIHNAEEAFNPNAVKVVLDAEGYALYFSRATIPWDRDRFAEGLETVGDNFLRHLGIYGYRAGFIRRYVNWQPSPLEHIEMLEQLRVLWYGEKIHVAVAQEVPGTGVDTPEDLERVRAEMR
Which results are given for B8?
fold change of barcode share [1]: 0.287 ± 0.025; fold change of barcode share [2]: < 0.00303

B9: kdsB V83Q (protein)
chain: MSFVVIIPARYASTRLPGKPLVDINGKPMIVHVLERARESGAERIIVATDHEDVARAVEAAGGEVCMTRADHQSGTERLAEVQEKCAFSDDTVIVNVQGDEPMIPATIIRQVADNLAQRQVGMATLAVPIHNAEEAFNPNAVKVVLDAEGYALYFSRATIPWDRDRFAEGLETVGDNFLRHLGIYGYRAGFIRRYVNWQPSPLEHIEMLEQLRVLWYGEKIHVAVAQEVPGTGVDTPEDLERVRAEMR
Which results are given for B9?
fold change of barcode share [1]: 0.287 ± 0.02; fold change of barcode share [2]: 0.00804 ± 0.0042

B10: kdsB I94A (protein)
chain: MSFVVIIPARYASTRLPGKPLVDINGKPMIVHVLERARESGAERIIVATDHEDVARAVEAAGGEVCMTRADHQSGTERLAEVVEKCAFSDDTVAVNVQGDEPMIPATIIRQVADNLAQRQVGMATLAVPIHNAEEAFNPNAVKVVLDAEGYALYFSRATIPWDRDRFAEGLETVGDNFLRHLGIYGYRAGFIRRYVNWQPSPLEHIEMLEQLRVLWYGEKIHVAVAQEVPGTGVDTPEDLERVRAEMR
With B10 as the protein, how does the “fold change of barcode share” value [1] read?
The value was 0.43 ± 0.12.

What about the “fold change of barcode share” value [2] of the same protein?
Its value is under 0.00429.

B11: kdsB V83A (protein)
chain: MSFVVIIPARYASTRLPGKPLVDINGKPMIVHVLERARESGAERIIVATDHEDVARAVEAAGGEVCMTRADHQSGTERLAEVAEKCAFSDDTVIVNVQGDEPMIPATIIRQVADNLAQRQVGMATLAVPIHNAEEAFNPNAVKVVLDAEGYALYFSRATIPWDRDRFAEGLETVGDNFLRHLGIYGYRAGFIRRYVNWQPSPLEHIEMLEQLRVLWYGEKIHVAVAQEVPGTGVDTPEDLERVRAEMR
For B11, which “fold change of barcode share” value [1] is on record?
The value was 0.354 ± 0.014.

What about the “fold change of barcode share” value [2] of the same protein?
Its value is under 0.00339.

B12: kdsB V83D (protein)
chain: MSFVVIIPARYASTRLPGKPLVDINGKPMIVHVLERARESGAERIIVATDHEDVARAVEAAGGEVCMTRADHQSGTERLAEVDEKCAFSDDTVIVNVQGDEPMIPATIIRQVADNLAQRQVGMATLAVPIHNAEEAFNPNAVKVVLDAEGYALYFSRATIPWDRDRFAEGLETVGDNFLRHLGIYGYRAGFIRRYVNWQPSPLEHIEMLEQLRVLWYGEKIHVAVAQEVPGTGVDTPEDLERVRAEMR
With B12 as the protein, how does the “fold change of barcode share” value [1] read?
Its value is 0.422 ± 0.23.

What about the “fold change of barcode share” value [2] of the same protein?
Its value is 0.122 ± 0.17.

B13: kdsB I46Q (protein)
chain: MSFVVIIPARYASTRLPGKPLVDINGKPMIVHVLERARESGAERIQVATDHEDVARAVEAAGGEVCMTRADHQSGTERLAEVVEKCAFSDDTVIVNVQGDEPMIPATIIRQVADNLAQRQVGMATLAVPIHNAEEAFNPNAVKVVLDAEGYALYFSRATIPWDRDRFAEGLETVGDNFLRHLGIYGYRAGFIRRYVNWQPSPLEHIEMLEQLRVLWYGEKIHVAVAQEVPGTGVDTPEDLERVRAEMR
What does the source list for B13?
fold change of barcode share [1]: 0.4 ± 0.059; fold change of barcode share [2]: < 0.0109

B14: kdsB I46A (protein)
chain: MSFVVIIPARYASTRLPGKPLVDINGKPMIVHVLERARESGAERIAVATDHEDVARAVEAAGGEVCMTRADHQSGTERLAEVVEKCAFSDDTVIVNVQGDEPMIPATIIRQVADNLAQRQVGMATLAVPIHNAEEAFNPNAVKVVLDAEGYALYFSRATIPWDRDRFAEGLETVGDNFLRHLGIYGYRAGFIRRYVNWQPSPLEHIEMLEQLRVLWYGEKIHVAVAQEVPGTGVDTPEDLERVRAEMR
Which results are given for B14?
fold change of barcode share [1]: 0.264 ± 0.19; fold change of barcode share [2]: < 0.00728
